The structures appear in SMILES notation. Records with an inconclusive call do not appear. Calls follow the shape of the full dose curve. A structure can be active in one record and inactive in another. Some entries of the source have several records that differ or are many. Only these are listed. The source may hold further records. The values listed for one entry are repeated measurements (runs, samples, wells, individuals or studies). Marks in square brackets tell the records apart. Letters hold for one entry only.
Potency is read from the fitted curve at half-maximal effect.

The experiment addresses Estrogen receptor (Homo sapiens) (UniProt P03372). Description: qHTS assay for small molecule agonists of estrogen receptor alpha signaling (AID 588514). Also: nearly all actives have a fitted effect of over 70% in size. As to conditions: ER-alpha-UAS-bla HEK293, beta-lactamase ratio, 18 h; series mostly up to 76.8 µM. Summed up: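 EC50 and efficacy came from Hill fits of beta-lactamase reporter signal (CCF4 dye, 2 h at room temperature) scaled between DMSO and 20 nM 17-beta-estradiol. Agonist mode: HEK293 ER-alpha-UAS-bla cells in charcoal/dextran-stripped serum medium, 18 h compound exposure at 37 C.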
Chain of UniProt P03372 (P03372 whole entry, looked up): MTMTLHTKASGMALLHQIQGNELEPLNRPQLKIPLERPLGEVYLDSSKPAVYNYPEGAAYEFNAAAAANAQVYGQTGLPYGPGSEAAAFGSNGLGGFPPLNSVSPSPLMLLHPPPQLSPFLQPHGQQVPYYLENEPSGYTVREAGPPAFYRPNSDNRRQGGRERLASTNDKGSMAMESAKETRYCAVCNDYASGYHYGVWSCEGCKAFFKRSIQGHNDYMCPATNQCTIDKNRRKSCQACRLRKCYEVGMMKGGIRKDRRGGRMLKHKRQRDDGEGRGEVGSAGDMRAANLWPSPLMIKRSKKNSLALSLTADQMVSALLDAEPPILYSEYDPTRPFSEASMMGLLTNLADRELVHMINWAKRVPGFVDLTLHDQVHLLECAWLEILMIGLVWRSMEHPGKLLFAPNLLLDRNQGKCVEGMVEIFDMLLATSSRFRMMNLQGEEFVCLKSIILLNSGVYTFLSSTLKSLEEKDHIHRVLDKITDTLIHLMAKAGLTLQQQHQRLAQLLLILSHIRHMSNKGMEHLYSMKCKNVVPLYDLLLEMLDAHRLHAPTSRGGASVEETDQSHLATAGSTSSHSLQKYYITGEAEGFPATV
Take `CC(C)(OO)c1ccccc1`: the Potency entry is “inactive [sample A] and active: 12.6 µM [sample B]”. As for `C=CC(N)=O`, the entry is “inactive [sample A] and active: 15.8 µM [sample B] and inactive [sample C]”; as for `CCCCCCCCCc1ccc(O)cc1`, “active: 3.98 µM [sample A] and inactive [sample B]”; as for `CCOCN(C(=O)CCl)c1c(C)cccc1CC`, “active: 708 nM [sample A] and inactive [sample B]”. With `CCc1cccc(CC)c1N(COC)C(=O)CCl` the entry was “active: 158 nM [sample A] and inactive [sample B]”.

For the origin of these results see PubChem BioAssay (NCATS).
